About 18,000 (5.8%) of roughly 310,000 compounds were called active. The shares of active, inactive and inconclusive entries below differ from those in the screen. Calls come from the whole dose curve; as a rule, active = well fitted inhibition curve with a large enough effect; inconclusive = small, poorly fitted or top-dose-only effect, or another doubt; inactive = no such curve, though single readings can be large or run the other way. Potencies of inconclusive entries are left out as doubtful fits.
experiment: Primary qHTS for delayed death inhibitors of the malarial parasite plastid, 48 hour incubation; details: P. falciparum luciferase growth in erythrocytes; series mostly up to 28.7 µM; activity change, negative = inhibition: at the top concentration
Procedure, shortened: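 Firefly luciferase activity from engineered P. falciparum reports growth; inhibitors lower the luminescent signal. Cultures contained 2% hematocrit erythrocytes at 0.1% final parasitemia.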
% is set by controls: 0 for no effect and ±100 for the full control effect; potency is the fitted concentration of half-maximal effect; tags give direction and shape of the fitted curve.

Question: With `O=C(Nc1ccccc1F)Nc1cc(Cl)ccc1-n1cncn1` as the compound, how does the “activity change, negative = inhibition” value read?
Answer: inactive: 0.296%

Question: Which Potency does the source give for `O=C(NCc1ccccc1)c1cc(S(=O)(=O)N2CCCCC2)ccc1N1CCOCC1` here?
Answer: inconclusive [inhibitor, single point]

Question: With `COc1cccc(N2CCN(Cc3nc(N)nc(N4CCCc5ccccc54)n3)CC2)c1` as the compound, how does the Potency read?
Answer: inconclusive [inhibitor, single point]

Question: With `O=C1CCCCC1C(Nc1ccc(Br)cc1)c1ccccc1` (stereo unspecified) as the compound, how does the Potency read?
Answer: inconclusive [inhibitor, single point]

Question: For `Cc1ccc(N2CCN(C(=O)CCc3nc4ccccc4[nH]3)CC2)c(C)c1`, which Potency is on record?
Answer: inconclusive [inhibitor, partial curve]

Question: With `O=C(c1cccc(S(=O)(=O)N2CCOCC2)c1)N1CCN(S(=O)(=O)c2cccc([N+](=O)[O-])c2)CC1` as the compound, how does the Potency read?
Answer: inconclusive [inhibitor, single point]

Question: With `Cc1ccc(S(=O)(=O)CC(=O)Nc2nccs2)cc1` as the compound, how does the Potency read?
Answer: inconclusive [inhibitor, single point]

Question: For `COc1cc(C(=O)NC2CC3CCCC(C2)N3Cc2ccccc2)cc(OC)c1OC` (stereo unspecified), which Potency is on record?
Answer: inconclusive [inhibitor, partial curve, poor fit]

Question: For `CCOc1cc(-c2conc2N)cc(OCC)c1OCC`, which Potency is on record?
Answer: inconclusive [inhibitor, single point]

Question: Which “activity change, negative = inhibition” value does the source give for `C=CCNC(=O)c1ccc(-c2ccc([N+](=O)[O-])cc2)o1` here?
Answer: inactive: 64.1%

Question: Which Potency does the source give for `CCC(C)(C)NC(=O)C(c1ccc(OC)cc1)N(C(=O)CCC(=O)Nc1cc(C)on1)C1CC1` (stereo unspecified) here?
Answer: inconclusive [inhibitor, single point]

Question: Which Potency does the source give for `CCOC(=O)c1cc2c(=O)n3cccc(C)c3nc2n(Cc2ccco2)c1=NC(=O)c1cccnc1` here?
Answer: inconclusive [inhibitor, single point]

Question: For `Cc1ccc(S(=O)(=O)N2CCC(C(=O)NNC(=O)c3ccccc3)CC2)cc1`, which “activity change, negative = inhibition” value is on record?
Answer: inactive: 2.64%

Question: Which Potency does the source give for `COc1ccc(OC(C)C(=O)Nc2cccc(OC)c2)cc1` (stereo unspecified) here?
Answer: inconclusive [inhibitor, single point]

Question: Which Potency does the source give for `O=C1C=C(c2ccc3ccccc3c2)C[C@@H](c2ccc(Cl)cc2)C1` here?
Answer: inconclusive [inhibitor, single point]

Question: For `O=C(CN1CCN(C(c2ccccc2)c2ccccc2)CC1)NCc1ccccc1`, which Potency is on record?
Answer: inconclusive [inhibitor, partial curve]

Question: Which Potency does the source give for `Cn1c(SCCOc2ccccc2F)nc2ccccc2c1=O` here?
Answer: inconclusive [inhibitor, single point]

Question: With `Cc1ccc(NC(=O)c2ccc(S(=O)(=O)N3CCCC3)cc2)nc1` as the compound, how does the Potency read?
Answer: inconclusive [inhibitor, partial curve, poor fit]

Question: With `COC(=O)C1=C(c2ccc3ccccc3c2)C[C@@H]2CC[C@H]1N2C(=O)NCc1ccco1` as the compound, how does the Potency read?
Answer: inconclusive [inhibitor, single point]

Question: Which Potency does the source give for `Cc1ccsc1/C=N/NC(=S)NCc1ccccc1` here?
Answer: active: 2.94 µM

Question: Which Potency does the source give for `C#C[C@@]1(O)CCC2C3CCC4=C/C(=N/OCC(=O)NC(C(=O)NC(CC(C)C)C(=O)O)C(C)C)CC[C@]4(C)C3CC[C@@]21C` (stereo partly specified) here?
Answer: inconclusive [inhibitor, single point]

Question: Which Potency does the source give for `O=C(CCNC(=O)c1ccc(Cl)cc1)NC1CCCc2ccccc21` (stereo unspecified) here?
Answer: inconclusive [inhibitor, single point]

Question: For `COCCn1c(C)cc(C2=NNC(=Nc3ccc(Cl)cc3Cl)SC2)c1C`, which Potency is on record?
Answer: inconclusive [inhibitor, partial curve]

Question: Which “activity change, negative = inhibition” value does the source give for `Cc1ccc(C2C3=C(CCCC3=O)Nc3c2c(C)nn3-c2ccccn2)o1` (stereo unspecified) here?
Answer: inactive: 9.01%

Question: Which Potency does the source give for `CC(C)CCn1c(SC(C)C(=O)NC2CC2)nc2ccccc2c1=O` (stereo unspecified) here?
Answer: inconclusive [inhibitor, partial curve]

Question: Which Potency does the source give for `CC(=O)N1c2ccc(S(=O)(=O)N3CCCC(C(=O)N4CCCCC4)C3)cc2CC1C` (stereo unspecified) here?
Answer: inconclusive [inhibitor, partial curve, poor fit]

Question: For `CCN1C(=O)[C@H]2[C@@H](c3ccc(C)cc3)N3C(=O)N(c4cccc(Cl)c4)C(=O)[C@@]3(CC(C)C)[C@H]2C1=O`, which Potency is on record?
Answer: inconclusive [inhibitor, partial curve]

Question: For `c1ccc(Cn2cc(CSc3ccccc3)nn2)cc1`, which “activity change, negative = inhibition” value is on record?
Answer: inactive: 50.3%

Question: Which Potency does the source give for `O=C1/C(=C/c2cccs2)Sc2ccccc21` here?
Answer: inconclusive [inhibitor, single point]

Question: Which Potency does the source give for `O=C(NCCC1CCCCN1S(=O)(=O)c1ccccc1)C(=O)Nc1ccccc1` (stereo unspecified) here?
Answer: inconclusive [inhibitor, single point]

Question: With `CCOC(=O)[C@H]1[C@H]2COc3cc(OC)ccc3[C@@H]2N2C(=O)CN(Cc3ccccc3)C(=O)[C@@]12C` as the compound, how does the Potency read?
Answer: inconclusive [inhibitor, partial curve, poor fit]

Question: With `O=C(c1ccc2oc(CCc3ccccc3)nc2c1)N1CCC(O)CC1` as the compound, how does the “activity change, negative = inhibition” value read?
Answer: inactive: 153%

Question: Which Potency does the source give for `C/C(=N\NC(=O)c1cccc(S(=O)(=O)N2CCCC2)c1)c1ccc(F)cc1` here?
Answer: inconclusive [inhibitor, partial curve, poor fit]

Question: Which “activity change, negative = inhibition” value does the source give for `COc1ccccc1CC(=O)Nc1ccc([N+](=O)[O-])cc1O` here?
Answer: inactive: 7.03%

Question: With `O=C(CN(c1cccc([N+](=O)[O-])c1)S(=O)(=O)c1ccccc1)NCc1ccccc1` as the compound, how does the Potency read?
Answer: inconclusive [inhibitor, partial curve]

Question: Which “activity change, negative = inhibition” value does the source give for `COc1cccc(N2C(=O)CC(NNc3nc4ccccc4s3)C2=O)c1` (stereo unspecified) here?
Answer: inactive: 17.3%

Question: Which Potency does the source give for `CCOc1ccc2nc(SCC(=O)Nc3cc(C)on3)c(C)cc2c1` here?
Answer: inconclusive [inhibitor, single point]

Question: With `O=C1CC(c2ccc(F)c(Br)c2)C2=C(CCCC2=O)N1` (stereo unspecified) as the compound, how does the “activity change, negative = inhibition” value read?
Answer: inactive: -17.5%

Question: Which Potency does the source give for `COC(=O)C1=C(c2ccc(F)cc2OCc2ccccc2)C[C@@H]2CC[C@H]1N2C(=O)NCc1cccc(C(F)(F)F)c1` here?
Answer: active: 4.65 µM

Question: With `CNCC(O)c1cccc(OC(=O)c2ccccc2C)c1` (stereo unspecified) as the compound, how does the Potency read?
Answer: inconclusive [inhibitor, partial curve, poor fit]

Question: Which Potency does the source give for `COc1ccccc1NC(=O)C1CCN(S(=O)(=O)c2ccc3c(c2)CC(C)N3C(C)=O)CC1` (stereo unspecified) here?
Answer: inconclusive [inhibitor, full curve]
